PubChem BioAssay AID463173 (ICCB-Longwood Screening Facility, Harvard Medical School, 2010)
The campaign covered roughly 52,000 compounds. About 4,300 (8.3%) were called active. Cut-off read from the data, not from the text of the source: active = survival mostly below about 52% (no sharp cut-off); inactive = mostly above about 56%. Some of the results follow.

tested on: DeltatarO mutant; assay: growth inhibition of S. aureus wild type versus tarO mutant, primary screen, teichoic acid synthesis inhibitors, RN4220, OD600 (AID 463173); details: OD600, 18 h, hits give low values, screened at 18.75 µg/mL (by protocol)

SMILES | survival
CCc1ccccc1NC(=O)Cn1c(=O)oc2ccccc21 | inactive: 83%
CCCN(C(=O)Cn1nc(Cc2cccnc2)c2ccccc2c1=O)c1ccc(C(C)C)cc1 | inactive: 66%
CC(=O)Nc1ccc(S(=O)(=O)N2CCN(c3nc4ccccc4s3)CC2)cc1 | inactive: 95%
CCOc1ccc(CCNC(c2nnc(-c3ccccc3)o2)c2ccccc2Cl)cc1OCC (centres undefined) | active: 1%
Cc1ccc(-c2cn3c(n2)sc2cc(C(=O)NC4CCCCCC4)ccc23)c(C)c1 | inactive: 48%
Cc1ccc(Cl)cc1N1CCN(C(=O)C2CCN(S(=O)(=O)c3c(C)noc3/C=C/c3ccccc3F)CC2)CC1 | inactive: 72%
Cc1cccc(NC(c2nnc(-c3ccccc3)o2)c2ccc(F)cc2Cl)c1C (centres undefined) | inactive: 61%
Cc1oc2c(c(C)cc3oc(=O)c(CC(=O)NCCc4ccc(Cl)cc4)c(C)c32)c1C | inactive: 80%
O=C(NCc1ccccc1)c1ccc2c(c1)sc1nc(-c3ccc(F)cc3)cn12 | inactive: 101%
CC(C)c1nn2c(=O)cc(COC(=O)COc3ccccc3F)nc2s1 | inactive: 79%
CCc1ccccc1NC(=O)CSc1nc2ccccc2nc1Cc1cccc(OC)c1 | inactive: 86%
N#CCSc1nnc(-c2ccccc2)n1-c1ccccc1 | inactive: 96%
COc1cccc(-c2cn3c(n2)sc2cc(C(=O)NCCc4ccccc4)ccc23)c1 | active: 38%
Cc1ccc(C)c(N2CCN(CCCNC(=O)c3ccc4nc(C(C)C)oc4c3)CC2)c1 | inactive: 99%
Cc1nn(C)c2c1c(C(F)(F)F)cc(=O)n2C(C)C(=O)NCc1ccccc1 (centres undefined) | inactive: 82%
CN(C(=O)CN1CCC(NC(=O)c2ccccc2Br)CC1)C1CCCCC1 | inactive: 97%
COc1cc(OC)c(C(=O)NC2CC(C)(C)NC(C)(C)C2)cc1OC | inactive: 88%
CCOCCc1nn2c(=O)cc(COC(=O)c3ccc4c(c3)OCO4)nc2s1 | inactive: 128%
Cn1c(C(=O)Nc2cccc(Cl)c2)cc2c(=O)n(C)c3ccccc3c21 | inactive: 94%
COc1ccc(-c2nc(CS(=O)CC(=O)NCc3ccccc3Cl)c(C)o2)cc1OC (centres undefined) | inactive: 72%

SMILES | survival
O=S(=O)(c1ccc(Br)cc1)N1CCn2cccc2C1c1ccc(Br)cc1 (centres undefined) | inactive: 66%
Cc1ccc(CNc2nc3nc(C)c(Cl)c(C)n3n2)cc1 | inactive: 90%
CC(C)C1NC(=O)c2c(sc3c2CCCC3)N1 (centres undefined) | inactive: 72%
Cc1cccc(-c2cc(C(=O)O)c3c(-c4ccc(F)cc4)[nH]nc3n2)c1 | inactive: 83%
Cc1ccc2nc(N(Cc3cccnc3)C(=O)CCc3ccccc3)sc2c1 | inactive: 94%
CC1(C(=O)O)COC(c2ccc(Cl)cc2)OC1 (centres undefined) | inactive: 75%
CC(=O)c1ccc(NC(=O)c2nn(C)c3c2CS(=O)(=O)c2ccccc2-3)cc1 | inactive: 64%
CCOC(=O)c1ccc(CN(Cc2ccc(Cl)cc2Cl)S(=O)(=O)c2cccc(Cl)c2)cc1 | inactive: 80%
O=C(O)CCSc1nnc(-c2ccc(Cl)cc2Cl)o1 | inactive: 66%
Nc1ccc(S(=O)(=O)N2CCSC2C(=O)O)cc1 (centres undefined) | inactive: 104%
CC1(C)O[C@H]2[C@@H](O1)[C@@H](C(=O)Nc1cc(F)ccc1F)O[C@@H]1OC(C)(C)O[C@@H]12 | inactive: 103%
COc1ccc(CN(C2CCCC2)S(=O)(=O)c2ccc(-n3cnnn3)cc2)cc1 | inactive: 88%
Cc1ccc(-c2cn3c(n2)sc2cc(C(=O)NC4CCCCC4)ccc23)cc1 | inactive: 68%
CCOc1ccccc1NC(=O)c1cn(C2CCCCC2)c(=O)c2c1c1ccccc1n2C | inactive: 82%
COc1ccc(CCNC(=O)CCn2c(=O)c3cccn3c3ccc(F)cc32)cc1OC | active: 45%
O=C1c2ccccc2C(=O)N1CN(Cc1ccccc1)CN1C(=O)c2ccccc2C1=O | inactive: 85%
CC1(C)Cc2ccccc2C(N/N=C/c2ccco2)=N1 | inactive: 84%
Cc1cccc(NC(=O)c2ccc(F)c(S(=O)(=O)N3CCN(c4ccc(F)cc4)CC3)c2)c1 | active: -1%
CCOC(=O)C1=C(CN2CCCCC2)NC(=O)NC1c1ccc(OC)cc1 (centres undefined) | inactive: 84%
Cc1nnc(SCC(=O)NCc2ccc(N(C)C)cc2)c2nn(-c3ccccc3)c(C)c12 | inactive: 75%

SMILES | survival
Cc1ccc(NC(=O)C2CCN(c3nnc(-n4cccc4)s3)CC2)cc1Cl | inactive: 87%
COc1cccc(C(c2c(O)cc(C)n(Cc3ccco3)c2=O)N2CCC(C)CC2)c1 (centres undefined) | inactive: 74%
CN(CC(=O)O)Cc1nc2ccccc2[nH]1 | inactive: 103%
COc1ccc(OC)c2sc(N(Cc3cccnc3)C(=O)c3ccc(C(C)=O)cc3)nc12 | inactive: 120%
CCN(CC)C(=O)Cn1c(=O)n(CCCCCC(=O)NCc2ccccc2)c(=O)c2sccc21 | inactive: 64%
COc1ccccc1C(=O)Nc1ccccc1SCc1cc(=O)c2ccccc2[nH]1 | inactive: 81%
O=C(c1ccc2c(c1)N(Cc1ccccc1F)C(=O)c1ccccc1S2=O)N1CCCCC1 (centres undefined) | inactive: 88%
O=C(NC1CC(=O)N(c2ccc(F)cc2)C1)C1CCCCC1 (centres undefined) | inactive: 66%
c1ccc(CNc2nnnn2-c2ccccc2)cc1 | inactive: 93%
Cc1ccn(CC(C)C(=O)O)n1 (centres undefined) | inactive: 94%
CCOc1cc(/C=C(\C#N)C(=O)Nc2ccccc2C)ccc1OCc1cc(=O)n2nc(CC)sc2n1 | inactive: 105%
C=CCN1C(=O)C(CCC(=O)O)NC1=S (centres undefined) | inactive: 73%
COc1ccc(CCC(=O)NCc2nc3cccnc3n2Cc2ccc(C)cc2)cc1 | inactive: 86%
CCOCCCNC(=O)c1[nH]c2cc(OC)ccc2c1Sc1ccccc1 | inactive: 88%
Cc1cccc(N(CC(=O)Nc2cccc(Cl)c2C)S(C)(=O)=O)c1C | inactive: 61%
Cc1ccc(S(=O)(=O)NCC(c2ccco2)N2CCN(c3ccccc3F)CC2)cc1 (centres undefined) | inactive: 83%
CC(C)CCNC(=O)c1cccc(-n2cnc3cccnc32)c1 | inactive: 107%
Cc1ccc(C(=O)COC(=O)c2cccc(NC(=O)c3ccc(Br)cc3)c2)cc1 | inactive: 57%
Cc1cccc(CS(=O)(=O)Cc2ccc(C(=O)NC(C)c3ccccc3)o2)c1 (centres undefined) | inactive: 102%
